This passage reports relative cell viability results from the supplement of paper PMC10670038.

The structures appear in SMILES notation. Structures can show the parent of a compound that is named as a salt. ± gives the standard deviation of the averaged measurements. Whole data set: some 2,000 compounds, median “relative cell viability vs DMSO, compound + 0.2 uM CuET” near 1, cut for the lowest 2% near 0.25. Some of the results follow.

This assay deals with TE10. In words: relative cell viability vs DMSO, compound + 0.2 uM CuET (fraction); TE10 is an esophageal squamous carcinoma line; higher = less cytotoxic. Particulars: 2 µM; co-treatment: CuET (bis(diethyldithiocarbamate)copper) 0.2 uM; 48 h. The protocol:
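TE10 ESCC cells (1,000/well, 384-well plates) were treated with Selleck bioactive library compounds at 2 uM combined with 0.2 uM CuET (copper diethyldithiocarbamate) for 48 h. Viability was read by CellTiter-Glo and expressed relative to DMSO wells. Two technical replicates (A, B).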
For `NC1=NCC2c3ccccc3Cc3ccccc3N12` (configuration not stated) [Epinastine HCl], the relative cell viability is 1.22 ± 0.0069.
With `NC(=O)N1c2ccccc2CC(=O)c2ccccc21` [Oxcarbazepine] the figure was 1.19 ± 0.079; with `CC1(C)O[C@@H]2[C@@H](CO[C@@]3(COS(N)(=O)=O)OC(C)(C)O[C@@H]23)O1` [Topiramate], 1.43 ± 0.061.
As for `COc1cc(NS(=O)(=O)c2ccc(N)cc2)nc(OC)n1` [Sulphadimethoxine], the relative cell viability was determined as 1.14 ± 0.038.
The figure for `CCNc1nc(Nc2cc(F)c(C(=O)N3CCOCC3)cc2OC)ncc1C(F)(F)F` is 1.15 ± 0.28; for `O=C1N=C(O)NC1(c1ccccc1)c1ccccc1` [Phenytoin sodium] it is 0.961 ± 0.045; for `COc1ccc(OC)c(C2C(C#N)=C(N)Oc3n[nH]c(-c4ccc5ccccc5c4)c32)c1` (configuration not stated) it is 1.06 ± 0.048.
Take `Cc1ccc(Cl)cc1N(CC(=O)Nc1c(F)cccc1F)S(C)(=O)=O`: the relative cell viability is 1.17 ± 0.055.
`NS(=O)(=O)c1ccc(NC(=O)Nc2ccc(F)cc2)cc1`: the relative cell viability worked out at 1.2 ± 0.12.
The figure for `S=c1[nH]cnc2nc[nH]c12` [Mercaptopurine (6-MP)] is 0.915 ± 0.12.
With `CN(Cc1ccc(C(C)(C)C)cc1)Cc1cccc2ccccc12` [Butenafine HCl], the relative cell viability was determined as 1.023 ± 0.0027.
With `CN1CC[C@@H](c2c(O)cc(O)c3c(=O)cc(-c4ccccc4Cl)oc23)[C@@H]1CO` the figure was 0.7 ± 0.044; with `O=C(NCCCNc1nc(Nc2cccc(NC(=O)N3CCCC3)c2)ncc1I)c1cccs1`, 1.06 ± 0.21; with `Cc1cccc(-c2[nH]ncc2-c2ccc3ncccc3n2)n1`, 1.04 ± 0.0027.
With `CC(C)n1cnc2c(NCCc3ccc(O)cc3)nc(-c3csc4ccccc34)nc21` [StemRegenin 1 (SR1)] the figure was 1.26 ± 0.12; with `Cc1nc2c(O)cccc2c(=O)[nH]1`, 1.34 ± 0.054.
The figure for `O=C(NNc1ccccc1)c1ccncc1` is 1.06 ± 0.18.
For `Cc1cc(C#N)cc(C)c1Oc1nc(Nc2ccc(C#N)cc2)nc(N)c1Br` [Etravirine (TMC125)], the relative cell viability was determined as 0.862 ± 0.023.
In the case of `Cn1cncc1[C@@](N)(c1ccc(Cl)cc1)c1ccc2c(c1)c(-c1cccc(Cl)c1)cc(=O)n2C` [Tipifarnib], the relative cell viability worked out at 0.888 ± 0.059.
The figure for `O=c1[nH]c(=O)n([C@H]2C[C@H](O)[C@@H](CO)O2)cc1C(F)(F)F` [Trifluridine] is 1.08 ± 0.047; for `Cc1cc(F)c(Nc2ncnc3cc(OCc4ccccc4)ccc23)cc1O` it is 0.92533 ± 0.00026; for `N#CC(=Cc1ccc(-c2cc(Cl)ccc2Cl)o1)C(=O)Nc1cccc2ncccc12` it is 1.06 ± 0.03.
With `CCCC(=O)Nc1cccc(NC(=O)c2ccccc2Br)c1` the figure was 1.01 ± 0.16.
With `CO[C@H]1C[C@@H]2CC[C@@H](C)[C@@](O)(O2)C(=O)C(=O)N2CCCC[C@H]2C(=O)O[C@H]([C@H](C)C[C@@H]2CC[C@H](n3cnnn3)[C@H](OC)C2)CC(=O)[C@H](C)/C=C(\C)[C@@H](O)[C@@H](OC)C(=O)[C@H](C)C[C@H](C)/C=C/C=C/C=C/1C` [Zotarolimus(ABT-578)] the figure was 0.902 ± 0.034; with `COc1cc2ncnc(Nc3ccc(O)c(Br)c3)c2cc1OC`, 1.15 ± 0.18; with `O=C(O)c1ccc(O)c2ncccc12`, 1.06 ± 0.14.
Consider `COc1cc(-c2cc(-c3cccc(O)c3)cnc2N)cc(OC)c1OC`, for which the relative cell viability turned out to be 1.32 ± 0.091.
With `Nc1nc(=O)[nH]cc1F` [Flucytosine], the relative cell viability came out at 1.15 ± 0.052.
Regarding `O=C(NC1CC1)c1cc(-c2cccs2)on1` [Isoxazole 9 (ISX-9)], the relative cell viability was determined as 1.1 ± 0.19.
With `Oc1cc(O)cc(/C=C/c2ccc(O)c(O)c2)c1` [Piceatannol] the figure was 1.02 ± 0.094; with `Cc1cc(Nc2cc(CN3CCOCC3)c3nc(C)c(Cc4ccc(Cl)cc4F)n3n2)n[nH]1`, 0.92 ± 0.046; with `Brc1ccc(C2CN3CCSC3=N2)cc1` (single isomer, unassigned; (-)) [(-)-p-Bromotetramisole Oxalate], 1.33 ± 0.11.
The figure for `Nc1nnc(-c2cccc(Cl)c2Cl)c(N)n1` [Lamotrigine] is 1.01 ± 0.039; for `CC[C@@]1(O)C(=O)OCc2c1cc1n(c2=O)Cc2cc3c(CN(C)C)c(O)ccc3nc2-1` [Topotecan HCl] it is 0.322 ± 0.15; for `CN(C)C(=O)c1cc2cnc(Nc3ccc(N4CCNCC4)cn3)nc2n1C1CCCC1` it is 1.23 ± 0.11.
For `C=C1[C@H](CO)[C@@H](O)C[C@@H]1n1cnc2c(=O)[nH]c(N)nc21` [Entecavir Hydrate], the relative cell viability amounted to 1.6 ± 0.13.
Consider `CC(=O)O[C@]1(C(C)=O)CC[C@H]2[C@@H]3C=C(C)C4=CC(=O)CC[C@]4(C)[C@H]3CC[C@@]21C` [Megestrol Acetate], for which the relative cell viability is 1.21 ± 0.17.
The figure for `CN1CCN(c2ccc(Nc3cc(-c4cccc(-n5ccc6cc(C7CC7)cc(F)c6c5=O)c4CO)cn(C)c3=O)nc2)CC1` is 0.978 ± 0.068.
With `COc1ccc2c(c1)c(CC(=O)OCC(=O)O)c(C)n2C(=O)c1ccc(Cl)cc1` [Acemetacin] the figure was 1.26 ± 0.2; with `Cc1nccn1CC1CCc2c(c3ccccc3n2C)C1=O` (configuration not stated) [Ondansetron HCl], 1.29 ± 0.12.
With `CC(=O)NC[C@H]1CN(c2ccc(N3CCOCC3)c(F)c2)C(=O)O1` [Linezolid] the figure was 1.52 ± 0.027.
Regarding `Cn1sc(=O)n(Cc2ccccc2)c1=O`, the relative cell viability was 0.444 ± 0.021.
The figure for `COc1ccc2cc3[n+](cc2c1OC)CCc1cc2c(cc1-3)OCO2` [Berberine HCl] is 1.12 ± 0.015.
As for `COc1cc2c(cc1Cc1cccc(Cl)c1F)c(=O)c(C(=O)O)cn2[C@H](CO)C(C)C` [Elvitegravir (GS-9137, JTK-303)], the relative cell viability was 0.941 ± 0.05.
As to `CC(C)(C)OC(=O)Nc1ccc(-c2cc(C(=O)NCCCCCCC(=O)NO)no2)cc1`, the relative cell viability worked out at 0.244 ± 0.003.
With `COc1cc(-c2cc(-c3ccc(N4CCNCC4)cc3)cnc2C)cc(OC)c1OC` the figure was 0.87 ± 0.053.
Turning to `Nc1ccccc1NC(=O)c1ccc(CNc2nccc(-c3cccnc3)n2)cc1` [Mocetinostat (MGCD0103)], the relative cell viability stood at 0.249 ± 0.039.
Turning to `CC[C@H](C)C(=O)O[C@H]1C[C@H](O)C=C2C=C[C@H](C)[C@H](CC[C@@H](O)C[C@@H](O)CC(=O)O)[C@H]21` [Pravastatin sodium], the relative cell viability stood at 0.813 ± 0.099.
As to `CC1=C(C(=O)O)N2C(=O)[C@@H](NC(=O)[C@H](N)c3ccccc3)[C@H]2SC1` [Cephalexin], the relative cell viability came out at 1.31 ± 0.071.
With `CCC(CC)(NC(=O)C(C)C)C(=O)N[C@@H](CCCN=C(N)N)C(=O)NC1(C(=O)NC(c2ccc(F)cc2)c2ccc(F)cc2)CCCC1` the figure was 1.01 ± 0.04.
With `O=C(O)Cc1cc(I)c(Oc2ccc(O)c(I)c2)c(I)c1` [Tiratricol], the relative cell viability was found to be 1.14 ± 0.1.
Consider `Cc1cc(Nc2ncc(Cl)c(Nc3ccccc3S(=O)(=O)C(C)C)n2)c(OC(C)C)cc1C1CCNCC1`, for which the relative cell viability came to 0.566 ± 0.12.
With `C[C@@H](Oc1cc(-c2cnn(C3CCNCC3)c2)cnc1N)c1c(Cl)ccc(F)c1Cl` the figure was 1.05 ± 0.011.
With `NS(=O)(=O)C#Cc1ccccc1` [Pifithrin-μ] the figure was 0.291 ± 0.042; with `CNCC[C@@H](Oc1ccccc1C)c1ccccc1` [Atomoxetine HCl], 0.978 ± 0.08; with `Cc1ccc(C(=O)C(C)CN2CCCCC2)cc1` (configuration not stated) [Tolperisone HCl], 1.025 ± 0.0064.
The figure for `Nc1ncnc2c1nc(Br)n2[C@@H]1O[C@@H]2COP(=O)(O)O[C@H]2[C@H]1O` [8-Bromo-cAMP] is 0.902 ± 0.043; for `CCCCC1C(=O)N(c2ccccc2)N(c2ccccc2)C1=O` [Phenylbutazone] it is 1.09 ± 0.061; for `CN(C)c1cc(NC(=O)CNC(C)(C)C)c(O)c2c1CC1CC3C(N(C)C)C(=O)C(C(N)=O)=C(O)C3(O)C(=O)C1=C2O` (configuration not stated) [Tigecycline] it is 0.994 ± 0.068.
Take `COc1cc2ncnc(Nc3ccc(F)c(Cl)c3)c2cc1NC(=O)/C=C/CN1CCCCC1`: the relative cell viability is 0.829 ± 0.029.
With `CC1=CC(=O)c2ccccc2C1=O` [Menadione], the relative cell viability was determined as 0.671 ± 0.13.
With `CC(=O)/N=c1/sc(S(N)(=O)=O)nn1C` [Methazolamide] the figure was 1.06 ± 0.042; with `Cc1ccc(C(=O)N(CCCN)[C@@H](c2nc3cc(Cl)ccc3c(=O)n2Cc2ccccc2)C(C)C)cc1`, 0.983 ± 0.024.
The figure for `CCCc1nc2c(C)cc(-c3nc4ccccc4n3C)cc2n1Cc1ccc(-c2ccccc2C(=O)O)cc1` [Telmisartan] is 1.03 ± 0.15; for `COCCCOc1cc(C[C@@H](C[C@H](N)[C@@H](O)C[C@H](C(=O)NCC(C)(C)C(N)=O)C(C)C)C(C)C)ccc1OC` [Aliskiren Hemifumarate] it is 1.21 ± 0.045.
The figure for `CO/N=C(\C(=O)N[C@@H]1C(=O)N2C(C(=O)O)=C(CSC(=O)c3ccco3)CS[C@H]12)c1csc(N)n1` [Ceftiofur HCl] is 0.995 ± 0.042; for `CN1[C@@H]2CC[C@H]1C[C@@H](OC(c1ccccc1)c1ccccc1)C2` [Benztropine mesylate] it is 1.0299 ± 0.00025; for `C[C@@H]1O[C@@H](OC[C@H]2O[C@@H](Oc3c(-c4ccc(O)c(O)c4)oc4cc(O)cc(O)c4c3=O)[C@H](O)[C@@H](O)[C@@H]2O)[C@H](O)[C@H](O)[C@H]1O` [Rutin] it is 1.21 ± 0.018.
Turning to `COc1ccnc2[nH]cc(C(=O)C(=O)N3CCN(C(=O)c4ccccc4)C[C@H]3C)c12`, the relative cell viability stood at 1.18 ± 0.065.
With `CCCC(=O)Nc1ccc(OCC(O)CNC(C)C)c(C(C)=O)c1` (configuration not stated) [Acebutolol HCl] the figure was 1.24 ± 0.31.
For the compound `CC(C)(C)OC(=O)N[C@H]1CCCCC/C=C\[C@@H]2C[C@@]2(C(=O)NS(=O)(=O)C2CC2)NC(=O)[C@@H]2C[C@@H](OC(=O)N3Cc4cccc(F)c4C3)CN2C1=O` [Danoprevir (ITMN-191)], the relative cell viability came to 1.19 ± 0.02.
With `NC(=O)Nc1sc(-c2ccc(F)cc2)cc1C(N)=O` the figure was 1.2 ± 0.077; with `C[C@H](CCC(=O)O)[C@H]1CC[C@H]2[C@@H]3C[C@H](O)[C@@H]4C[C@H](O)CC[C@]4(C)[C@H]3CC[C@]12C` [Hyodeoxycholic acid (HDCA)], 1.21 ± 0.052; with `N=C(N)c1ccc(N=NNc2ccc(C(=N)N)cc2)cc1` [Diminazene Aceturate], 1.41 ± 0.38.
With `C[C@@H]1O[C@@H](O[C@H]2[C@H](Oc3cc(O)c4c(c3)O[C@H](c3ccc(O)cc3)CC4=O)O[C@H](CO)[C@@H](O)[C@@H]2O)[C@H](O)[C@H](O)[C@H]1O` [Naringin] the figure was 1.063 ± 0.0016.
The figure for `Cn1cc(C2=C(c3cn(CCCSC(=N)N)c4ccccc34)C(=O)NC2=O)c2ccccc21` [Ro 31-8220 Mesylate] is 0.827 ± 0.022; for `N[C@@H](CC(=O)N1CCn2c(nnc2C(F)(F)F)C1)Cc1cc(F)c(F)cc1F` [Sitagliptin phosphate monohydrate] it is 1.07 ± 0.012.
